{
  "source": "the supplement of paper PMC3334620",
  "note": "In all, about 33,000 sequences were measured (“E-score (-0.5 to 0.5)”: median about -0.043, highest 2% from about 0.37 on). This is one part of the list.",
  "data": [
    {"target": "T1, Upc2 (UniProt Q12151)", "T1 sequence": "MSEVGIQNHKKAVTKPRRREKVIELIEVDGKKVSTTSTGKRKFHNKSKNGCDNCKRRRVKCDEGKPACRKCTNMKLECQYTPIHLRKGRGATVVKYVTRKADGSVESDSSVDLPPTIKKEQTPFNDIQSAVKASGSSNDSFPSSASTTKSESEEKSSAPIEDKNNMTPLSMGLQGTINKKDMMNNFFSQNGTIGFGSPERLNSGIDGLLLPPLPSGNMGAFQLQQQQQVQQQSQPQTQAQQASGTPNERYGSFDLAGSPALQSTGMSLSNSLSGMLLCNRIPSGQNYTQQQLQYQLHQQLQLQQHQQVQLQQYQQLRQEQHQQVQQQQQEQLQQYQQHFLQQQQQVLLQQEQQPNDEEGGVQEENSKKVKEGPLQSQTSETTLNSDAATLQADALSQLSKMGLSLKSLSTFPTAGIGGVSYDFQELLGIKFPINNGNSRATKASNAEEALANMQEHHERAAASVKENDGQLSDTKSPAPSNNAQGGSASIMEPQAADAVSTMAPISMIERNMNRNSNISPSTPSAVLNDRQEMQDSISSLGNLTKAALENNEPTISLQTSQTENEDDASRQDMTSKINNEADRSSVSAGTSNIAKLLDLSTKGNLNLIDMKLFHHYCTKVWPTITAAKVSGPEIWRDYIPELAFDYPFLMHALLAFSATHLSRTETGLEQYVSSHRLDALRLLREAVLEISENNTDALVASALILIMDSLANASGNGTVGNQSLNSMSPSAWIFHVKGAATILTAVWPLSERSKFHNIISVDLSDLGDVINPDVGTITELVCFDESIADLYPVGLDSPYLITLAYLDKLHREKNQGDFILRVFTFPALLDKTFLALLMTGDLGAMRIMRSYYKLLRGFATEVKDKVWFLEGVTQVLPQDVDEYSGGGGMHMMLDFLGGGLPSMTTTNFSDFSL", "assay": "PBM E-score (8-mer binding enrichment) (E-score (-0.5 to 0.5)); higher = stronger / more preferred TF binding; most listed sequences are background and not binding sites", "settings": "protein concentration: 200 nM; construct: GST-full length", "summary_of_the_method": "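GST-tagged yeast TFs (full-length or DNA-binding domain) were made by PURExpress in vitro transcription/translation and applied at about 100-200 nM to universal all-10-mer Agilent arrays. The arrays were made double-stranded by primer extension, on fresh or once-stripped slides. Bound protein was detected with fluorescent anti-GST, and scans were normalised with masliner. Each ungapped eight-base word, pooled with its reverse complement, received an E-score (modified Wilcoxon-Mann-Whitney statistic) from the Universal PBM Analysis Suite.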", "values": [
      {"sequence": "CCCCATAC", "PBM E-score": 0.174},
      {"sequence": "AGCTCAGG", "PBM E-score": -0.183},
      {"sequence": "AGTTTTGG", "PBM E-score": -0.0774},
      {"sequence": "GTGACCTA", "PBM E-score": -0.106},
      {"sequence": "AAATCCGA", "PBM E-score": 0.14},
      {"sequence": "CGTGGTAG", "PBM E-score": -0.212},
      {"sequence": "CGCTGATC", "PBM E-score": -0.00472},
      {"sequence": "CAACTACA", "PBM E-score": -0.172},
      {"sequence": "CCCTGGGA", "PBM E-score": -0.225},
      {"sequence": "GCCAGCCA", "PBM E-score": -0.126},
      {"sequence": "ATGTACCA", "PBM E-score": -0.0534},
      {"sequence": "CGGTGGAC", "PBM E-score": -0.175},
      {"sequence": "GACATGGA", "PBM E-score": -0.0806},
      {"sequence": "CCTGGAGA", "PBM E-score": -0.251},
      {"sequence": "GATGTGAC", "PBM E-score": -0.0117},
      {"sequence": "CACTCGAG", "PBM E-score": 0.0587},
      {"sequence": "GATCGATC", "PBM E-score": -0.03},
      {"sequence": "CCTCCTCC", "PBM E-score": -0.105},
      {"sequence": "GCTTACAA", "PBM E-score": -0.0171},
      {"sequence": "AGCCTCGA", "PBM E-score": 0.036},
      {"sequence": "AAAGGGAT", "PBM E-score": -0.154},
      {"sequence": "AGAAAGCC", "PBM E-score": -0.103},
      {"sequence": "CTCTCCTC", "PBM E-score": -0.201},
      {"sequence": "ACCCGCGG", "PBM E-score": -0.084},
      {"sequence": "CGTTCTAC", "PBM E-score": 0.264},
      {"sequence": "CAAGAAAA", "PBM E-score": -0.0476},
      {"sequence": "TACCCGCA", "PBM E-score": 0.0567},
      {"sequence": "CAATGGAG", "PBM E-score": -0.254},
      {"sequence": "AGTCACCG", "PBM E-score": -0.0692},
      {"sequence": "AGAAACCC", "PBM E-score": -0.239},
      {"sequence": "TAATGTAA", "PBM E-score": -0.0142},
      {"sequence": "AGCAGCCA", "PBM E-score": -0.0202},
      {"sequence": "GACTTGAA", "PBM E-score": 0.0308},
      {"sequence": "CCCTGAAG", "PBM E-score": -0.16},
      {"sequence": "AAGGGCCG", "PBM E-score": 0.0321},
      {"sequence": "GGTACCCA", "PBM E-score": -0.0644},
      {"sequence": "CTCGGGCA", "PBM E-score": -0.0343},
      {"sequence": "CTTAGTGA", "PBM E-score": -0.151},
      {"sequence": "AGACCATA", "PBM E-score": 0.134},
      {"sequence": "CGAGCCGA", "PBM E-score": 0.0905},
      {"sequence": "ATGACTCC", "PBM E-score": -0.331},
      {"sequence": "GCAAGTCC", "PBM E-score": -0.216},
      {"sequence": "AACATGCC", "PBM E-score": -0.00673},
      {"sequence": "CCGCTACA", "PBM E-score": -0.0599},
      {"sequence": "ATTACCAA", "PBM E-score": -0.131},
      {"sequence": "AGAGATCC", "PBM E-score": -0.111},
      {"sequence": "CTAGCCGC", "PBM E-score": -0.214},
      {"sequence": "CCACTTAC", "PBM E-score": 0.187},
      {"sequence": "GGCGCGCC", "PBM E-score": 0.0859},
      {"sequence": "ACTACAAT", "PBM E-score": 0.0165},
      {"sequence": "ATTGCAAG", "PBM E-score": 0.0216},
      {"sequence": "AGATCACA", "PBM E-score": -0.0727},
      {"sequence": "AAGGCTAT", "PBM E-score": -0.103},
      {"sequence": "AGGCAGAA", "PBM E-score": -0.0504},
      {"sequence": "CATGTGGC", "PBM E-score": -0.146},
      {"sequence": "CCCGAAAG", "PBM E-score": 0.00835},
      {"sequence": "CGATCTAC", "PBM E-score": 0.0957},
      {"sequence": "GTTGCTAA", "PBM E-score": 0.137},
      {"sequence": "CTGTGAAG", "PBM E-score": -0.129},
      {"sequence": "CCCTGTGA", "PBM E-score": -0.153},
      {"sequence": "CGAACAGC", "PBM E-score": 0.101},
      {"sequence": "CCTGTTAC", "PBM E-score": 0.0437},
      {"sequence": "ATTTCCCA", "PBM E-score": 0.0444},
      {"sequence": "ATAACACG", "PBM E-score": 0.089},
      {"sequence": "AGGCATCC", "PBM E-score": -0.168},
      {"sequence": "GGAAGTTA", "PBM E-score": 0.092},
      {"sequence": "AATCAAAC", "PBM E-score": 0.188},
      {"sequence": "CCCCCCGG", "PBM E-score": -0.291},
      {"sequence": "GGTTCATA", "PBM E-score": 0.0774},
      {"sequence": "GGTACTAA", "PBM E-score": -0.0237},
      {"sequence": "ACAATCGT", "PBM E-score": 0.221},
      {"sequence": "GTGGCTAA", "PBM E-score": -0.0315},
      {"sequence": "ACGATCCC", "PBM E-score": 0.231},
      {"sequence": "CCAAGCGG", "PBM E-score": -0.271},
      {"sequence": "ACCTGATA", "PBM E-score": -0.173},
      {"sequence": "CCCGTTCA", "PBM E-score": 0.291},
      {"sequence": "CCAACAGG", "PBM E-score": -0.162},
      {"sequence": "CTATATAC", "PBM E-score": 0.358},
      {"sequence": "AAAGGGGG", "PBM E-score": -0.177},
      {"sequence": "TTGACAAA", "PBM E-score": 0.0582},
      {"sequence": "CGTCCATA", "PBM E-score": -0.095},
      {"sequence": "GCGGTATA", "PBM E-score": 0.151},
      {"sequence": "GGCCACCA", "PBM E-score": -0.136},
      {"sequence": "CGGAATTA", "PBM E-score": 0.216},
      {"sequence": "AGAGCAAG", "PBM E-score": -0.118},
      {"sequence": "ACACGAGT", "PBM E-score": 0.162},
      {"sequence": "AACCTTAT", "PBM E-score": -0.285},
      {"sequence": "ACTCCGGA", "PBM E-score": 0.0907},
      {"sequence": "AACGGATA", "PBM E-score": 0.274},
      {"sequence": "CCAGTCAA", "PBM E-score": -0.167},
      {"sequence": "ACGGGCAC", "PBM E-score": 0.124},
      {"sequence": "CGCGAGGC", "PBM E-score": 0.177},
      {"sequence": "AATAGATC", "PBM E-score": 0.0449},
      {"sequence": "CCTTAGCC", "PBM E-score": -0.122}
    ]}
  ]
}
